Test results from PubChem BioAssay AID1745845 (National Center for Advancing Translational Sciences (NCATS), 2022).
Among all 360,000 compounds or so, about 2,600 (0.72%) were called active. The shares of active, inactive and inconclusive entries below differ from those in the screen. The call rests on the fitted dose curve; in most records, active means well fitted inhibition curve with a large enough effect; inconclusive means small, poorly fitted or top-dose-only effect; inactive means no such curve, though single readings can be large or run the other way. Potencies beside an inconclusive call are fits to weak or partial responses and may not hold up.

Experiment: Primary qHTS for Inhibitors of ATXN expression; further: nearly all actives have a fitted effect of over 55% in size
Conditions: HEK-293 ATXN2-luciferase reporter, luminescence, 24 h; series mostly up to 57 µM
How it was run: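 qHTS (up to 57 uM final) was run with 24 h compound exposure of reporter cells at 37 °C. Each well was multiplexed: SteadyGlo luminescence measured ATXN2-luciferase expression after a fluorogenic Gly-Phe-AFC viability readout (25 uM final).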
Potency means the concentration at half of the fitted maximal effect; tags describe the fitted curve by direction and shape.

For `Cc1noc(/C=C/c2ccco2)c1S(=O)(=O)N1CCC(C(=O)Nc2ccc(Cl)cn2)CC1`, which Potency is on record?
The Potency was inconclusive: 10 µM [inhibitor, partial curve, poor fit].

Which Potency does the source give for `COc1cccc(-n2nnnc2S(C)(=O)=O)c1` here?
The Potency was inconclusive: 39.8 µM [inhibitor, single point].

With `CCCC(=O)NC(c1ccc(OC)cc1)c1c(O)ccc2ccccc12` (stereo unspecified) as the compound, how does the Potency read?
Its Potency is inconclusive: 39.8 µM [inhibitor, single point].

With `CN(C)c1ccc2c(c1)OC(N)=C(C#N)C2c1cccc(F)c1` (stereo unspecified) as the compound, how does the Potency read?
The Potency was inconclusive: 25.1 µM [inhibitor, partial curve].

With `CCCN(CCC)CCCNC(=O)Cn1ncc2c3ccccc3n(Cc3ccccc3F)c2c1=O` as the compound, how does the Potency read?
The Potency was inconclusive: 22.4 µM [inhibitor, single point].

Which Potency does the source give for `Cc1c(NC(=O)c2ccc(C(C)(C)C)cc2)cccc1-c1cn(C)c(=O)c(Nc2ccc(C(=O)N3CCOCC3)cc2)n1` here?
The Potency was inconclusive: 48.5 µM [inhibitor, single point].

With `CCOC(=O)c1c(NC(=O)COC(=O)CCOc2cc(C)ccc2C)sc(C(=O)N(C)C)c1C` as the compound, how does the Potency read?
Its Potency is “inactive”.

Which Potency does the source give for `CCCCNC(=S)NCC(c1ccccc1)c1c[nH]c2ccccc12` (stereo unspecified) here?
Its Potency is inconclusive: 25.1 µM [inhibitor, single point].

With `CCC(O)(CC)C(=O)N/N=C/c1cc(Br)cc(Br)c1O` as the compound, how does the Potency read?
Its Potency is inconclusive: 25.1 µM [inhibitor, single point].

For `O=[N+]([O-])c1ccc(-n2nnnc2-c2ccccc2)c([N+](=O)[O-])c1`, which Potency is on record?
Its Potency is inconclusive: 39.8 µM [inhibitor, single point].

Which Potency does the source give for `CCOC(=O)c1c(NC(=O)C(NCCN(C)C)c2ccccc2)sc2c1CCCC2` (stereo unspecified) here?
Its Potency is active: 28.2 µM.

With `O=C(NN=C1CCCCC1)Nc1ccccc1Cl` as the compound, how does the Potency read?
The Potency was “inactive”.

With `COc1ccccc1-c1cc(NC(C)=O)c2ncc(-c3cccc(C(C)=O)c3)n2c1` as the compound, how does the Potency read?
Its Potency is inconclusive: 39.8 µM [inhibitor, single point].

Which Potency does the source give for `CCN1/C(=C/c2sc(-c3ccccc3C)c[n+]2C)Sc2ccccc21` here?
Its Potency is inconclusive: 1.06 µM [inhibitor, full curve].

Which Potency does the source give for `Clc1ccc2c(N/N=C/c3ccccc3Br)ccnc2c1` here?
Its Potency is inconclusive: 39.8 µM [inhibitor, single point].

For `COc1cccc(CN2CCN(C3CCN(c4ccccc4F)CC3)CC2CCO)c1` (stereo unspecified), which Potency is on record?
Its Potency is “inactive”.

Which Potency does the source give for `COc1ccc(/C=C/C(=O)c2c(C)cc(C)[nH]c2=O)c2ccccc12` here?
Its Potency is inconclusive: 39.8 µM [inhibitor, single point].

With `CN(C)CCN(C)Cc1ccccc1Sc1cccc2ccccc12` as the compound, how does the Potency read?
The Potency was active: 25.1 µM.

Which Potency does the source give for `CCOC(=O)C1=NNC2(c3ccccc3)C(=O)N(c3cccc(Br)c3)C(=O)C12` (stereo unspecified) here?
Its Potency is “inactive”.

For `O=C(CN1C(=O)c2cccc3cccc(c23)C1=O)N1CCN(Cc2ccc3c(c2)OCO3)CC1`, which Potency is on record?
The Potency was inconclusive: 35.5 µM [inhibitor, single point].

Which Potency does the source give for `COc1ccc(NC(=O)CSc2ncnc3c2cnn3Cc2ccccc2)cc1` here?
Its Potency is inconclusive: 39.8 µM [inhibitor, single point].

Which Potency does the source give for `COC(=O)c1c(NC(=O)c2ccc([N+](=O)[O-])o2)sc2c1CCN(C(C)C)C2` here?
The Potency was inconclusive: 15.8 µM [inhibitor, partial curve, poor fit].

Which Potency does the source give for `CCCC(C(=O)NC1CCCC1)N(C(=O)Cn1nnc(-c2ccc(C)o2)n1)C1CCCC1` (stereo unspecified) here?
The Potency was “inactive”.

With `Oc1cccc(-c2nc3ncccn3c2Nc2cccc(C(F)(F)F)c2)c1` as the compound, how does the Potency read?
Its Potency is inconclusive: 20 µM [inhibitor, partial curve, poor fit].

With `CCn1cc(C(=O)NCCc2ccc(Cl)cc2)c(=O)c2cc(S(=O)(=O)N3CCOCC3)ccc21` as the compound, how does the Potency read?
The Potency was “inactive”.

With `CCCCC(=O)N(C)c1c(CC)nc2c(OCc3ccc(Cl)cc3Cl)cccn12` as the compound, how does the Potency read?
Its Potency is inconclusive: 35.5 µM [inhibitor, single point].

Which Potency does the source give for `Cc1ccc(CNc2ccc(-c3nc(-c4cccnc4)no3)cc2[N+](=O)[O-])cc1` here?
Its Potency is “inactive”.

With `O=C(CCC(=O)Nc1cccc(Cl)c1)N/N=C/c1cc([N+](=O)[O-])ccc1O` as the compound, how does the Potency read?
The Potency was inconclusive: 2.38 µM [inhibitor, partial curve, poor fit].

Which Potency does the source give for `O=C(CN1CCOCC1)N1N=C(c2cccs2)CC1c1cccs1` (stereo unspecified) here?
Its Potency is “inactive”.

With `CSc1cccc(Nc2ncc3cc(-c4c(Cl)cccc4Cl)c(=O)n(C)c3n2)c1` as the compound, how does the Potency read?
Its Potency is inconclusive: 3.06 µM [inhibitor, partial curve, poor fit].

For `CCc1cccc(NC(=O)Cn2c(C(=O)OC)cc3occc32)c1`, which Potency is on record?
Its Potency is “inactive”.

Which Potency does the source give for `COc1ccc(S(=O)(=O)N2C[C@H]3CON(C)[C@H]3C[C@H]2c2ccc(-c3cccc(F)c3)cc2)cc1` here?
The Potency was “inactive”.

With `CC(C)Cn1c(SCC(=O)N2CCN(S(=O)(=O)c3ccccc3)CC2)nc2ccccc21` as the compound, how does the Potency read?
The Potency was inconclusive: 20 µM [inhibitor, partial curve, poor fit].

With `COc1ccncc1-c1ccc(C2=CC(=O)CC(C)(C)C2=O)cc1` as the compound, how does the Potency read?
Its Potency is inconclusive: 39.8 µM [inhibitor, single point].

For `Cc1cccc(CC(Cc2nc3ccccc3[nH]2)c2nc3ccccc3[nH]2)c1` (stereo unspecified), which Potency is on record?
The Potency was inconclusive: 39.8 µM [inhibitor, single point].

With `Cn1c(N2CCOCC2)c(/C=N/OC(=O)c2ccc(F)cc2)c2ccccc21` as the compound, how does the Potency read?
Its Potency is inconclusive: 3.55 µM [inhibitor, single point].

For `Cc1ccc(S(=O)(=O)CCC(=O)Nc2sccc2C#N)cc1`, which Potency is on record?
Its Potency is “inactive”.

With `O=C(c1ccc2ccccc2c1)C1CCCN(C(=O)c2noc3c2CCCC3)C1` (stereo unspecified) as the compound, how does the Potency read?
The Potency was inconclusive: 17.8 µM [inhibitor, partial curve, poor fit].

Which Potency does the source give for `Cc1nc(C)c(-c2csc(NCc3ccccc3)n2)s1` here?
The Potency was “inactive”.

For `CCN(c1cccc(C)c1)C(CNS(=O)(=O)c1ccccc1)c1ccccc1` (stereo unspecified), which Potency is on record?
The Potency was inconclusive: 28.2 µM [inhibitor, single point].

For `Cc1ccc(Cc2nnc3n(-c4ccccc4)nc(C(=O)c4ccccc4)n3c2=O)cc1`, which Potency is on record?
Its Potency is inconclusive: 25.1 µM [inhibitor, partial curve, poor fit].

With `O=C1C=CC(=C(c2ccc(O)cc2)c2ccc(O)cc2)C=C1` as the compound, how does the Potency read?
The Potency was inconclusive: 28.2 µM [inhibitor, single point].

With `CC(C)CCn1c(=O)c2ccccc2n2c(CN(C)Cc3ccccc3)nnc12` as the compound, how does the Potency read?
The Potency was inconclusive: 31.6 µM [inhibitor, single point].

For `O=C(C1CC1)N(CCc1ccccc1)Cc1nc2ccccc2c(=O)[nH]1`, which Potency is on record?
The Potency was “inactive”.

With `CN1CCN(c2ccc(NC(=O)N3CCc4ccccc43)cc2)CC1` as the compound, how does the Potency read?
The Potency was inconclusive: 7.08 µM [inhibitor, partial curve, poor fit].

For `O=C(NCc1cccnc1)c1ccc(COc2ccc3c(c2)CCC3)o1`, which Potency is on record?
Its Potency is inconclusive: 39.8 µM [inhibitor, single point].

With `Cc1cc(C(=O)N/N=C/c2cc(Cl)cc([N+](=O)[O-])c2O)c2ccccc2n1` as the compound, how does the Potency read?
Its Potency is inconclusive: 39.8 µM [inhibitor, single point].

For `Cc1ccccc1C(=O)NNC(=S)NC(=O)c1ccccc1`, which Potency is on record?
Its Potency is inconclusive: 10 µM [inhibitor, partial curve, poor fit].

For `Cc1ccc(NC(=O)Cc2nnc(SCC(=O)c3ccc(Br)cc3)n2C)cc1`, which Potency is on record?
The Potency was “inactive”.

Which Potency does the source give for `CN1CCN(CC(=O)Nc2ccccc2Sc2ccccc2)CC1` here?
The Potency was inconclusive: 10.6 µM [inhibitor, partial curve, poor fit].

With `Cc1ccc(OS(=O)(=O)c2ccc(-c3csc(C)n3)s2)c(C)c1` as the compound, how does the Potency read?
Its Potency is inconclusive: 39.8 µM [inhibitor, single point].

Which Potency does the source give for `C[C@H](NC(=O)Cc1cc(F)cc(F)c1)C(=O)N[C@@H]1C(=O)N(C)c2ccccc2-c2ccccc21` here?
Its Potency is inconclusive: 21.7 µM [inhibitor, partial curve, poor fit].

With `COc1ccccc1CN(Cc1cc2c(C)ccc(C)c2[nH]c1=O)Cc1nnnn1Cc1ccco1` as the compound, how does the Potency read?
Its Potency is inconclusive: 28.2 µM [inhibitor, single point].

For `Cn1c(=O)n(C)c2cc(CNCc3ccc(C(=O)O)cc3)ccc21`, which Potency is on record?
Its Potency is “inactive”.

With `COc1ccc(NC(=O)C2CCN(S(=O)(=O)c3ccc4c(c3)NC(=O)C(C)S4)CC2)cc1` (stereo unspecified) as the compound, how does the Potency read?
The Potency was “inactive”.

With `CC(C)C[C@@H](CO)N(Cc1ccccc1)S(=O)(=O)N(Cc1ccccc1)[C@@H](CO)CC(C)C` as the compound, how does the Potency read?
The Potency was inconclusive: 39.8 µM [inhibitor, single point].

With `CCCCC(=O)NC(c1ccc([N+](=O)[O-])cc1)c1c(O)ccc2ccccc12` (stereo unspecified) as the compound, how does the Potency read?
The Potency was inconclusive: 35.5 µM [inhibitor, single point].

Which Potency does the source give for `O=C1[C@H](Cc2ccccc2)NCCCC[C@@H](c2ccc(Cl)cc2)N1Cc1ccccc1` here?
The Potency was inconclusive: 28.2 µM [inhibitor, single point].

For `CCC(=O)Nc1ccccc1Sc1ncnc2scc(-c3ccccc3)c12`, which Potency is on record?
Its Potency is “inactive”.

With `CN(C(=O)CSc1nc2ccc(NC(=O)c3ccc(F)cc3)cc2s1)c1ccccc1` as the compound, how does the Potency read?
Its Potency is inconclusive: 31.6 µM [inhibitor, single point].

For `Nc1cc2nsnc2cc1Br`, which Potency is on record?
Its Potency is “inactive”.

For `OCc1ccc(-c2ccc(-c3ccc(CO)s3)o2)s1`, which Potency is on record?
Its Potency is inconclusive: 0.0769 µM [inhibitor, full curve].

Which Potency does the source give for `CCn1ncc(CN2CCCC(C(=O)Nc3cccc(-c4cc5ccccc5[nH]4)c3)C2)c1C` (stereo unspecified) here?
The Potency was inconclusive: 14.1 µM [inhibitor, partial curve, poor fit].

For `O=C(Nc1nc(-c2cccs2)c(C(=O)C(F)(F)F)s1)c1ccccc1`, which Potency is on record?
The Potency was inconclusive: 25.1 µM [inhibitor, single point].

Which Potency does the source give for `CCOC(=O)c1c(S(=O)(=O)NCCc2cccs2)c(C)n(C)c1C` here?
Its Potency is “inactive”.

Which Potency does the source give for `Cc1ccc(C(C)C)c(OCC(=O)Nc2ccc3c(c2)nc(CCN2CCCCC2)n3C)c1` here?
The Potency was inconclusive: 28.2 µM [inhibitor, single point].
